Data as given in the supplement of paper PMC3334620.
In all, about 33,000 sequences were measured (“E-score (-0.5 to 0.5)”: median about -0.012, highest 2% from about 0.27 on). The list shows a part of the results.

The sequences below were run against T1, Vhr1 (UniProt P40522) (assay: PBM E-score (8-mer binding enrichment) (E-score (-0.5 to 0.5)); higher = stronger / more preferred TF binding; most listed sequences are background and not binding sites). Conditions: protein concentration: 200 nM; construct: GST-full length.
T1 sequence: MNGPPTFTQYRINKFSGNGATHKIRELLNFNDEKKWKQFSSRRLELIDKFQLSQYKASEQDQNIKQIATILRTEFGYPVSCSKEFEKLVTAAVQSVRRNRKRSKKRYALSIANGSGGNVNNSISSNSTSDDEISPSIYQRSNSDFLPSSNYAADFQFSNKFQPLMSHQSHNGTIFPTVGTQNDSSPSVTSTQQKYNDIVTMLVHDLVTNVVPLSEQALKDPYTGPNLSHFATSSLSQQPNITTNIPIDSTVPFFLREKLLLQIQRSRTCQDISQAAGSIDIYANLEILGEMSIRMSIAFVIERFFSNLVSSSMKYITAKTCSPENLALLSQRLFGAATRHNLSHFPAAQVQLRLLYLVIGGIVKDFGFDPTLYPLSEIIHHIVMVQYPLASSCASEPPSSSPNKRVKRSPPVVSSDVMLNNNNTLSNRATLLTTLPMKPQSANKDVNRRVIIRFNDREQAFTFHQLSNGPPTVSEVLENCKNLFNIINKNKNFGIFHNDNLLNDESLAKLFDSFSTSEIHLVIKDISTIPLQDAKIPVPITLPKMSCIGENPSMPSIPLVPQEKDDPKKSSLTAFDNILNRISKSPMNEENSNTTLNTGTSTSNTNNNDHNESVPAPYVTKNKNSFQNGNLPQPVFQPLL
Method in brief: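 Bound GST-tagged yeast transcription factors, applied at about 100-200 nM to double-stranded universal all-10-mer Agilent arrays, were detected with fluorescent anti-GST. Scans were normalised with masliner. A modified Wilcoxon-Mann-Whitney statistic, the E-score, was assigned to each ungapped eight-base word pooled with its reverse complement by the Universal PBM Analysis Suite.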

Sequence | PBM E-score
ACGGGAGA | -0.101
ACAGGTTA | -0.0957
CCCAACCA | 0.275
AGTAGTCG | 0.292
TGCGTAAA | -0.0943
TATGCTCA | 0.0368
ATGTCCAA | -0.0115
CCTTGCAA | -0.201
GCTGTGAA | -0.0735
GGGGGGAC | -0.167
CCGCTGAG | -0.122
ACTTGGAC | -0.0761
ACCTTCTC | -0.0296
ACCTGCCG | -0.0293
CAGTGATG | 0.088
AAAAAATC | -0.258
AGAACACA | 0.0953
AGGTTAGC | -0.19
CTATGTGA | 0.257
CGAACATA | 0.192
CAGTCAAG | 0.0145
GGATCCCA | 0.0078

Sequence | PBM E-score
GCACCTAC | -0.137
TAGACCAA | -0.0666
AGACATAG | 0.0373
TCAATGAA | 0.0609
ATTGCGCC | -0.0633
AGCGGCTA | 0.0207
AGTTCGTG | 0.154
CGTTGCTA | -0.00248
CTTAACGA | -0.0688
CGTGTTGA | 0.155
AGCTATCG | -0.0401
CCAGCCAA | -0.119
AGCTCACT | 0.073
GTCAGGCA | -0.0168
ACAAAGAG | -0.0915
CAGTCGGC | 0.0497
CGGATACG | 0.0224
ATCTACGG | 0.00971
CGCGGCAA | -0.0486
GTACTTGA | -0.0469
CCTCGTAG | 0.0494
ACTACATG | 0.127

Sequence | PBM E-score
ATTTCATA | 0.0613
GCCCGGCA | -0.139
ATGACGCA | 0.126
CTCAACGA | -0.0668
ATGGGAGG | 0.156
CGTGGCAC | -0.0853
CAGAGTCC | 0.0441
CCCAGCTC | 0.0439
GAATCCTC | -0.0437
CCCTAGCC | -0.184
CTTTAGGC | -0.378
ACGTACAA | 0.0683
ATCGTCTC | 0.0308
ACTACTAC | 0.232
TGCATGCA | 0.026
AGCTCGTA | -0.0698
GCTTTCCC | -0.0139
CTTGTACC | 0.102
CGGGTGTA | -0.0398
TACAGCGA | -0.0721
AAATGGCT | -0.0733
ATTCAATG | 0.044

Sequence | PBM E-score
AAGGTTAC | -0.106
CGTTCGAC | -0.139
ACCGACTC | 0.34
AGAAATGA | -0.104
TACCAGAA | 0.12
ATGACCCC | 0.211
AAGGTCGG | 0.0367
AGCTTCTA | -0.278
AATAAGTG | -0.0302
ACACATCT | 0.147
CCCACTAA | 0.139
CTATTACC | -0.0152
ACGGGTAC | -0.0194
GGGCTGAC | 0.165
AAGTAGAG | -0.225
TAAAATGA | 0.108
CCAGTGGC | -0.0267
CGTTCCAG | -0.239
TACAGAGA | -0.0449
ATCTCGGC | -0.0265
